Article PMC12040169 (PLOS Biology, 2025)
Some of the results follow.

system: T1, C. trachomatis L2/434/Bu expressing GFP (CTL2-GFP); set-up: species or system HeLa; C. trachomatis total inclusion area by high-content imaging, normalised to DMSO; conditions: total inclusion area; 28.5 h, 10 µM; inhibitor
T1 construct: L2/434/Bu GFP intracellular growth in HeLa cells
In short: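 After bulk GFP and resorufin fluorescence reads, cells were fixed, stained with Hoechst and imaged by high-content microscopy. Inclusion area and number (GFP) stood in for chlamydial growth, nuclei count (Hoechst) for host cell viability. MICs were derived as for the bulk readout.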

| SMILES | % of control remaining |
| --- | --- |
| OC1(Cn2cnc3ccccc32)CCN(Cc2ccccc2F)CC1 [CBK284662] | 105.21 |
| Cc1cc(C)c2c(O)nc(SCC(=O)c3ccc(F)c(C)c3)nc2n1 [CBK266087] | 137.958 |
| CCNC(=O)c1cc2c(=O)n3cc(C)ccc3nc2n(Cc2ccco2)c1=N [CBK265312] | 120.131 |
| Cc1ccc2nc(C)cc(NC(=O)c3ccncc3)c2c1 [CBK287801] | 81.7395 |
| COc1ccc(C(=O)CC(SCC(NC(C)=O)C(=O)O)c2ccc(Cl)cc2)cc1OC (stereo not shown) [CBK296109] | 65.5741 |
| O=C(CNS(=O)(=O)c1cc(Br)c(Cl)s1)N1CCOCC1 [CBK034474] | 85.3072 |
| COc1ccc(OC)c(NC(=O)CSc2nnc(-c3ccc(F)cc3)n2C)c1 [CBK266073] | 115.729 |
| CC1CCCCN1C(=O)CN1C(=O)N2CCCN=C2c2ccccc21 (stereo not shown) [CBK284393] | 90.0792 |
| CCOc1cc(N2CCOCC2)c(OCC)cc1NC(=O)CSc1ccccc1C(=O)O [CBK296107] | 66.9645 |
| Cc1ccc(NC(=O)CCCn2cc([N+](=O)[O-])cn2)cc1Cl [CBK268485] | 99.1676 |
| COc1ccc(-c2cc(C(=O)O)nn2C2CCS(=O)(=O)C2)cc1 (stereo not shown) [CBK286990] | 116.759 |
| NC(=O)c1csc(-c2ccc(F)cc2F)n1 [CBK067749] | 57.6473 |
| COc1cc2c(cc1OC)CN(Cc1ccccc1[N+](=O)[O-])CC2 [CBK261535] | 103.284 |
| CCc1nc(CN2CCN(C(=O)Nc3ccccc3C)CC2)cs1 [CBK305817] | 64.8873 |
| CC1CCc2c(sc3ncn(C4CCNCC4)c(=O)c23)C1 (stereo not shown) [CBK282349] | 64.7442 |
| O=C(Cn1c(=O)oc2ccccc21)Nc1cccc(C(=O)O)c1 [CBK267641] | 96.6789 |
| CC(=O)Nc1ccc(NC(=O)[C@H]2CCCC[C@H]2C(=O)O)cc1 [CBK287073] | 112.43 |
| Cc1cccc(NC(=O)CCC(=O)N/N=C/c2cccnc2)c1 [CBK262023] | 71.8139 |
| CCOC(=O)C(NS(=O)(=O)c1ccc(NC(C)=O)c(Cl)c1)C(=O)OCC [CBK043996] | 106.221 |
| Cc1ccc(S(=O)(=O)NC(C)(C)C(=O)O)cc1 [CBK263840] | 99.1724 |
| O=C(O)CCCn1cc(NC(=O)c2c(F)cccc2F)cn1 [CBK269941] | 101.474 |
| CC1(C)CN(c2ccc(S(N)(=O)=O)cc2)C1=O [CBK020416] | 70.8971 |
| CC(C)(C)N=C1c2nn(Cc3ccccc3)nc2C(=NC(C)(C)C)c2nn(Cc3ccccc3)nc21 [CBK261070] | 82.4976 |
| CC(C)(C)c1ccc(OCCCC(=O)Nc2ccc(N3CCOCC3)cc2)cc1 [CBK264783] | 102.968 |
| O=c1[nH]cc(-c2ccc(F)cc2)cc1CNCc1ccc(F)cc1 [CBK284695] | 101.26 |
| COc1ccc(C(=O)C2=C(O)C(=O)N(CCN3CCOCC3)C2c2ccc(O)c(OC)c2)c(C)c1 (stereo not shown) [CBK264858] | 122.311 |
| CC(O)CNCCNCc1cccs1 (stereo not shown) [CBK278279C] | 102.943 |

| SMILES | % of control remaining |
| --- | --- |
| C=CCn1c(-c2sc(NC(=O)Cn3c(=O)n(CCC)c4ccccc43)nc2C)n[nH]c1=S [CBK297890] | 116.377 |
| CCCc1[nH]nc(O)c1C(=O)c1c(Cl)cccc1Cl [CBK093553] | 90.5156 |
| CCn1c(C)nc2cc(NC(=O)Cn3cccc(C(=O)NC4CCCCC4)c3=O)ccc21 [CBK286042] | 101.229 |
| CCN1CCc2cc(-c3cncn3CC(=O)NC(C)(C)C)ccc21 [CBK281698] | 102.654 |
| Cc1cc(Cn2nnc(-c3ccc(Br)cc3)n2)cc(C)c1O [CBK291129] | 110.69 |
| CC1CCc2onc(C(=O)Nc3ccncc3)c2C1 (stereo not shown) [CBK288080] | 71.9374 |
| O=C(c1ccncc1)N1CCc2cc(S(=O)(=O)N3CCOCC3)ccc21 [CBK287800] | 103.192 |
| CSCCCNC(=O)N1CCN(C2CCN(C)CC2)CC1 [CBK155882] | 45.8974 |
| COc1ccc(CN(C(=O)CCc2c(C)[nH]c(=O)c(C#N)c2C)C2CC2)cc1 [CBK295667] | 103.376 |
| CCCS(=O)(=O)NC1CC(C)(C)Cc2c1cnn2-c1ccc(C)cc1 (stereo not shown) [CBK307531] | 63.0782 |
| N#Cc1cnn2c(C(F)(F)F)cc(C(F)(F)F)nc12 [CBK014064] | 84.9659 |
| CSCCN1CCN(c2nccnc2OCc2cccnc2)CC1 [CBK083146] | 102.276 |
| CN(C(=O)CCc1nc2sc3c(c2c(=O)[nH]1)CCCC3)C1CCCCC1 [CBK306075] | 44.0764 |
| CN(C)C(=O)c1cccc(-c2cnc3[nH]c(=O)n(Cc4ccc(Cl)cc4)c3n2)c1 [CBK064553] | 137.669 |
| C=CCN1C(=O)/C(=C2/Sc3ccc(OC)cc3N2C)S/C1=N\c1cc(C#N)ccc1NCC [CBK262431] | 101.855 |
| CS(=O)(=O)Nc1ncc(Br)cc1C(=O)Nc1ccc(C(F)(F)F)cc1 [CBK076485] | 100.359 |
| COc1ncc(-c2cccc(N(C)CCN(C)C)n2)c(OC)n1 [CBK037599] | 77.8603 |
| CCC1CCCCN1C(=O)CCc1c(C)nc(-c2ccccc2)[nH]c1=O (stereo not shown) [CBK305608] | 57.6659 |
| O=C(Nc1cc2ccccc2c(Br)n1)Nc1ccc(F)cc1C(F)(F)F [CBK063278] | 79.239 |
| CCc1nccn1CCC(=O)Nc1ccc2c(c1)CCN2C(C)=O [CBK281446] | 101.21 |
| CCOC(=O)C1=C(C)NC(=S)NC1c1ccc(O)c(OCC)c1[N+](=O)[O-] (stereo not shown) [CBK265624] | 109.304 |
| COc1ccc(CN2C(=O)CO[C@H]3CN(c4nccc(C)n4)C[C@H]32)cc1 [CBK289056] | 94.4277 |
| Cc1ccc2nc(NCc3ccco3)c(/C=N/Cc3ccco3)c(=O)n2c1 [CBK220353] | 94.1212 |
| c1cnc(Oc2ccc(CN3CCCC(c4cn[nH]c4)C3)cc2)cn1 (stereo not shown) [CBK306416] | 29.8997 |
| CC(C)N(CC(=O)N(c1ccccc1)c1ccccc1)C(C)C [CBK013303C] | 62.6992 |
| Nc1ncc(-c2cccc(O)c2)nc1NCc1ccco1 [CBK063675] | 99.0034 |
| O=C(Nc1cccnc1)c1cc(-c2ccc(Cl)cc2)on1 [CBK116555] | 94.8648 |

| SMILES | % of control remaining |
| --- | --- |
| NC(=O)c1c(NC(=O)c2ccc(COc3ccc4ccccc4c3)o2)sc2c1CCCC2 [CBK265871] | 101.474 |
| COCC(C)NC(=O)c1cc2c(C)cc(C)cc2[nH]1 (stereo not shown) [CBK057591] | 105.974 |
| CC1CCCN(Cc2c(C3CCNCC3)[nH]c3ncccc23)C1C (stereo not shown) [CBK285084] | 94.761 |
| Cc1nc(CNCc2c(C)nn(C)c2N2CCOCC2)cs1 [CBK305753] | 98.8549 |
| CN1CCN(CCCNC(=O)c2ccc(-c3ccc(C(=O)N(C)C)cc3)nc2)CC1 [CBK158343] | 102.875 |
| CCCc1[nH]n(CC(=O)OCC)c(=O)c1Cc1c(Cl)cccc1Cl [CBK104764] | 90.7566 |
| Clc1ccc(OCc2nnn[nH]2)c(C2CCCCC2)c1 [CBK270035] | 100.753 |
| O=C(COc1ccc2ccccc2c1)Nc1ccc(S(=O)(=O)N2CCc3ccccc32)cc1 [CBK263802] | 105.191 |
| O=C(Nc1cccc2cc[nH]c12)c1cc(F)cc(Cl)c1 [CBK160075] | 82.4075 |
| COC(=O)c1csc(-c2ccc(Cl)cc2Cl)n1 [CBK067776] | 91.9771 |
| CC(C)NC(=O)C1CN(Cc2ccccc2)CC12CCc1ccccc1C2NC(=O)CN (stereo not shown) [CBK283093] | 117.309 |
| O=C(C1CCC1)N1CCCC1c1nnc(-c2ccsc2)o1 (stereo not shown) [CBK283365] | 120.935 |
| O=C(CC1SC(=O)NC1=O)Nc1ccccc1O (stereo not shown) [CBK057932] | 109.755 |
| Cc1nc2c(c(=O)[nH]1)CN(Cc1cccc(Oc3ccccc3)c1)CC2 [CBK283951] | 84.3954 |
| CCNS(=O)(=O)c1ccc(NC(=O)c2nc3nc(C)cc(C(F)F)n3n2)cc1 [CBK266146] | 130.082 |
| COc1ccc(F)cc1-c1ccc(S(=O)(=O)Nc2nc(CC(=O)N3CCOCC3)cs2)cc1 [CBK200031] | 98.1894 |
| O=C(CSc1nc2ccccc2[nH]1)Nc1cccc(NC(=O)C23CC4CC(CC(C4)C2)C3)c1 [CBK265702] | 94.1492 |
| Cc1nc2ccc(Cl)cn2c1CN1CCN(C2CCCC2)C(=O)C1 [CBK281452] | 96.0224 |
| Cc1cccn2c(=O)cc(CN3CCc4nn(C)c(=O)cc4C3)nc12 [CBK305514] | 14.7517 |
| CN1Cc2nc[nH]c2C[C@H]1C(=O)NCc1ccco1 [CBK288979] | 97.2525 |
| O=S(=O)(Cc1cccc(C(F)(F)F)c1)c1csc2ccnc(N3CCNCC3)c12 [CBK039166C] | 95.8962 |
| COc1ccc([C@H](NC(=O)C2CCN(C(=O)OCc3ccccc3)CC2)c2ccccc2C)cn1 [CBK084639] | 96.4687 |
| O=C1c2ccc(Oc3ccc(Oc4ccc5c(c4)C(=O)N(c4cccnc4)C5=O)cc3)cc2C(=O)N1c1cccnc1 [CBK262195] | 96.9992 |
| C[C@@H](Nc1nc(-c2cccc(-c3ccccc3)c2)cnc1N)c1ccccc1 [CBK063704] | 136.263 |
| CC(C(=O)O)N(c1ccc(Cl)cc1)S(C)(=O)=O (stereo not shown) [CBK267945] | 94.1041 |
